The record followed here is ChEMBL document CHEMBL1201862, “PubChem BioAssay data set” (2004).

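Interpolation was linear, between the two tested concentrations surrounding the appropriate level; five concentrations were tested over 48 hours in 96-well plates. Here, GI50 denotes the concentration required for 50% inhibition of growth.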 Calls of active or inactive are those of the source. Rule as the data show it: active = GI50 up to about 1.1 µM and inactive = higher.

The assay deals with NCI-H322M. Description: NCI-60 cell line screen, 48 h.
On to `ON(CCc1ccncc1)Cc1ccccc1`, for which the GI50 is inactive: > 100 µM. As for `Nc1c(S(N)(=O)=O)cc(S(N)(=O)=O)cc1S(N)(=O)=O`, the GI50 was inactive: > 100 µM. Next, `O=S(=O)(c1ccccc1)N1CN2CN(C1)CN(S(=O)(=O)c1ccccc1)C2`: inactive: > 100 µM. Then `CC1(C)COCN1COC1CCCCC1`, with inactive: > 100 µM; and `CC[C@@]12C=CC(=S)N(CCSc3ccccc3)[C@@H]1c1c(n(S(=O)(=O)c3ccc(OC)cc3)c3ccccc13)CC2`, with inactive: > 100 µM.

As for `CC1CC(C)CC(NC2=NCCO2)C1` (configuration not stated), the GI50 is inactive: > 100 µM. With `CC(C)NC(=O)CN1CCN(C2=CC(=O)c3c(O)ccc(O)c3C2=O)CC1`, the GI50 was inactive: 17.7 µM. Then `Oc1ccccc1/C=N/N1C(=S)N(C23CC4CC(CC(C4)C2)C3)C(=N\c2ccccc2)/C1=N/c1ccccc1`, with inactive: > 100 µM; and `CCCC(=O)OCC1OC2OC(C)(C)OC2C2OC(C)(C)OC12` (configuration not stated), with inactive: > 100 µM. For the molecule `CCSC1(SCC)CCN(/C=N/C(C)(C)C)C1`, the GI50 was inactive: > 100 µM.

On to `COc1ccc(NC(=S)NN=C(C)c2cccc(C(C)=NNC(=S)Nc3ccc(OC)cc3)n2)cc1`, for which the GI50 is inactive: 5.12 µM. Turning to `N#[N+][c-]1c(-c2ccccc2)n[nH]c1=O`, the GI50 was inactive: > 100 µM. Next, `CC1(C)Oc2ccc(NC(=O)CCC(N)C(=O)O)cc2O1` (configuration not stated): inactive: > 100 µM; `NC1=NC(=O)C(CC(=O)Nc2ccc([N+](=O)[O-])cc2[N+](=O)[O-])S1` (configuration not stated): inactive: > 100 µM; `O=[N+]([O-])c1ccc2[nH]ncc2c1Cl`: inactive: 14.7 µM. Next, `O=C(c1ccc(Cl)cc1Cl)N(C(=O)N1CCCCC1)c1ccccc1`: inactive: > 100 µM; `C=C1C(=O)C=C[C@]2(C)CC[C@H]3C(=C)C(=O)O[C@@H]3[C@@H]12`: inactive: 17.1 µM; `CCC1(c2ccc(OC)c(OC)c2)CCN(S(=O)(=O)c2ccc(C)cc2)C1` (configuration not stated): inactive: > 100 µM.

As to `COc1ccc2c(c1)C(=O)c1ccc(OC)cc1C2=S`, the GI50 is inactive: > 100 µM. Then `COC(=O)C[C@@H]1C(C)(C)[C@@H]2O[C@@]34C[C@@H]2C(=O)[C@]1(C)[C@H]3CC[C@@]1(C)[C@H](c2ccoc2)OC(=O)C[C@]14O`, with inactive: > 100 µM; and `O=C(CO)C1CC2C=CC1C2` (configuration not stated), with inactive: > 100 µM; and `COc1ccc(/C(Cl)=C/c2ccc(Cl)c(Cl)c2)cc1`, with inactive: 45.1 µM.

With `c1ccc(CC2(c3cc4ccccc4[nH]3)OCCO2)nc1`, the GI50 was inactive: > 100 µM. Turning to `CCC(=O)Nc1ccc(N2C(=O)C(Cl)C2c2ccc(SC)cc2)cc1` (configuration not stated), the GI50 is inactive: > 100 µM. With `COc1cc(NS(C)(=O)=O)ccc1N1Cc2c[nH]c3ccc4nc(C)cc1c4c23`, the GI50 is inactive: 56.1 µM. Next, `OC1c2c(ccc3c2CCC3)CC12Cc1ccccc1C2` (configuration not stated): inactive: 16.9 µM. Then `Cc1nc2ccc(C(F)(F)F)cc2nc1NCc1ccc(Cl)c(Cl)c1`, with inactive: 15.9 µM; and `CC(=O)OC1CC2(O)C(CCC3(C)C(c4ccc(=O)oc4)CCC32O)C2(C)C1=CC(O)C1OC12` (configuration not stated), with active: 0.0361 µM; and `CN(C(=O)Cc1ccccc1)n1cnn(CC(=O)OC(C)(C)C)c1=S`, with inactive: > 10 µM. For `CC1=CC=CC(C)(C)CC1(O[Si](C)(C)C)C(F)(F)F` (configuration not stated), the GI50 is inactive: > 100 µM.

For `Fc1cc(C2=C[C@H](c3ccc(Cl)cc3)NC(=S)N2)c(Cl)cc1Cl`, the GI50 is inactive: 45.7 µM.

`c1ccc2c(c1)CCc1[nH]c3c(c1-2)-c1ccccc1CC3`: the GI50 was inactive: > 100 µM. Next, `N#Cc1cc2c(n(C3OC(CO)C(O)C(O)C3O)c1=S)CCCCC2` (configuration not stated): inactive: > 100 µM; `O=C1CCN(CCC(F)(F)C(F)(F)C(F)(F)C(F)(F)F)C(=S)N1`: inactive: > 100 µM.

For `CCOC(=O)C12CCCC1(O)N(NC(=O)c1ccccc1)C(C)=C2C(=O)OC` (configuration not stated), the GI50 was inactive: > 100 µM.

As for `O=c1c(F)cn2c(=O)n1CCCCCCCn1c(=O)c(F)cn(c1=O)CCCCCCC2`, the GI50 was inactive: > 100 µM. As for `CC(=O)OCCOCBr`, the GI50 is inactive: > 100 µM. In the case of `CC1=CP(=O)(OC(C)C)CC(C)=C1Cl` (configuration not stated), the GI50 is inactive: > 100 µM. Next, `CCOC(=O)C1=CN(Cc2ccccc2)C2ON=C(c3ccc(Cl)cc3)C2C1` (configuration not stated): inactive: > 58.2 µM; `CCOP(=O)(OCC)OC1c2[nH]cc(C(=O)OCc3ccccc3)c2-c2cc(C(=O)OC)[nH]c2C1OC` (configuration not stated): inactive: 13.9 µM. Next, `Clc1cc2ccccc2c2ccccc12`: inactive: > 100 µM.

`CCOC(OCC)c1ccc(/C=C/c2cc(OC)c(OC)c(OC)c2)cc1`: the GI50 was inactive: 41.7 µM. With `COc1cc2c[n+](C)c3c4ccccc4ccc3c2cc1OC`, the GI50 was inactive: 9.79 µM.

Consider `O=C1c2ccccc2C2(O)Oc3cccc(O)c3C12O` (configuration not stated), for which the GI50 is inactive: > 100 µM. Then `CN(C)c1ccc(C=C2C(=O)N(c3ccccc3)N(c3ccccc3)C2=O)cc1`, with inactive: > 100 µM; and `C[C@]1(O)O[C@@H]2OCC[C@@H]2C2=C1C(=O)c1ccccc1C2=O`, with inactive: 17.9 µM; and `C=CCNC1=C2C[C@@H](C)C[C@@H](OC)[C@H](OC(=O)CCN(C)C)[C@H](C)/C=C(\C)[C@@H](OC(N)=O)[C@H](OC)/C=C\C=C(/C)C(=O)NC(=CC1=O)C2=O`, with inactive: 3.05 µM.

Take `CCOC(=O)C1(C(=O)OCC)C[C@H](C)[C@](C)(O)C1`: the GI50 is inactive: > 100 µM.

In the case of `O=C(NC(Nc1ccc(F)cc1)(C(F)(F)F)C(F)(F)F)C(C(F)(F)F)C(F)(F)F`, the GI50 is inactive: > 100 µM. Next, `Cc1[nH]nc2c1C(=O)C=C(N(CCO)c1ccccc1)C2=O`: inactive: > 100 µM; `COc1cccc(C2c3cc4c(cc3OC3COC(=O)C32)OCO4)c1OC` (configuration not stated): inactive: > 100 µM. For `CC1=C(c2ccccc2)CON(c2ccccc2)C1`, the GI50 was inactive: 43.6 µM.

With `CC1=NC(=Cc2cccc(Cl)c2)C(=O)N1n1c(-c2ccccc2)nc2ccccc2c1=O`, the GI50 is inactive: 39.2 µM. `CCNC(=S)Nc1c(C#N)c2n(c1C(=O)OCC)CCCCC2`: the GI50 is inactive: > 100 µM. Regarding `CC(=O)O[C@H]1CCC2[C@@H]3CCC4Cc5nc6c(nc5C[C@]4(C)C3CC[C@@]21C)CC1CC[C@@H]2C(CC[C@@]3(C)C2CC[C@@H]3C(C)CCCC(C)C)[C@@]1(C)C6` (some centres not stated), the GI50 was inactive: > 100 µM.

Regarding `CC(=O)c1ccc(Br)cc1NC1=CC(=O)c2ncccc2C1=O`, the GI50 was active: 0.693 µM. Next, `C[N+]1(C)CCCC1C(=O)[O-]` (configuration not stated): inactive: > 100 µM; `C(=N\NC1=NCCN1)/c1cccc2cc3ccncc3nc12`: inactive: 4.58 µM; `Cn1c2c(c3ccccc31)C1C(=O)N(c3ccccc3)C(=O)C1CC2` (configuration not stated): inactive: > 303 µM. Next, `COc1cc(C2SCC(=O)N2c2ccc(-c3ccc(-n4c(-c5ccccc5)nc5ccccc5c4=O)cc3)cc2)cc(OC)c1OC` (configuration not stated): inactive: 35.6 µM. Next, `S=C1Cc2c(-c3ccc(Cl)cc3)cc(-c3ccccc3)nc2-c2ccccc2N1`: inactive: 10.9 µM; `O=C(NC1=C(Cl)C(=O)c2ccccc2C1=O)c1ccc(F)cc1`: inactive: 12.9 µM. Turning to `O=C(O)C1C2CCC(O2)C1C(=O)NCc1cccnc1` (configuration not stated), the GI50 is inactive: > 100 µM. Then `O=C(OCc1ccccc1)n1cccc1`, with inactive: > 100 µM; and `COC(=O)Nc1nc2cc(S(=O)(=O)NC(CC(C)C)C(=O)OC)ccc2[nH]1` (configuration not stated), with inactive: 4.15 µM. On to `O=C1C=C(O)C(=O)c2c(O)ccc(O)c21`, for which the GI50 is inactive: > 100 µM.

Regarding `COc1ccc(/N=N/c2ccc3oc(=O)c(C(=O)Nc4ccc(Cl)cc4)cc3c2)cc1`, the GI50 was inactive: 9.35 µM. Consider `CN(C)CCn1c2c(c3ccccc31)CCc1ccccc1-2`, for which the GI50 was inactive: 20.4 µM. Next, `NC(=O)Cn1c(=O)oc2cc(C(=O)CN3CCOCC3)ccc21`: inactive: > 100 µM; `O=C1NC(=O)/C(=C/c2ccc(S(=O)(=O)N/N=C\C(O)C(O)C(O)C(O)CO)cc2)N1` (configuration not stated): inactive: > 100 µM. Regarding `COc1c(C)c(C/C=C(\C)CCCCO[Si](c2ccccc2)(c2ccccc2)C(C)(C)C)c(OC)c(OC)c1OC`, the GI50 was inactive: > 100 µM. Next, `CC(C)Oc1c(-c2c(OC(C)C)c(=O)c2=O)c(=O)c1=O`: inactive: > 79.6 µM. With `Nc1nc(=O)c2c([nH]1)NCC(CCNc1ccc(C(=O)O)cc1)N2` (configuration not stated), the GI50 was inactive: > 100 µM. Turning to `CC(C)(CN1CCCCC1)C(=O)CC(SCCS(=O)(=O)O)c1ccc(Br)cc1` (configuration not stated), the GI50 was inactive: 1.96 µM.

Consider `N#C[BH2-][n+]1cn(C2CC(O)C(COP(=O)(O)OC3CC(n4ccc(N)nc4=O)OC3CO)O2)c2nc(N)[nH]c(=O)c21` (configuration not stated), for which the GI50 is inactive: > 100 µM. For the molecule `COC1=CC(=O)C2C(C1=O)C(c1ccccc1)[C@H]2C` (some centres not stated), the GI50 is inactive: > 100 µM. Then `O=C1OC(c2ccc(O)cc2)(c2ccc(O)cc2)c2ccc(Cl)c3cccc1c23.O=C1OC(c2ccc(O)cc2)(c2ccc(O)cc2)c2cccc3c(Cl)ccc1c23`, with inactive: 4.98 µM; and `O=C1C2C3CCC(C2C(=O)N1CO)C1C2C(=O)N(CO)C(=O)C2C31` (configuration not stated), with inactive: > 100 µM. On to `C/C(=N\NC(=O)C[n+]1ccccc1)c1sc(-c2nc(C)c(/C(C)=N/NC(=O)C[n+]3ccccc3)s2)nc1C`, for which the GI50 is inactive: > 100 µM. With `O=C1O/C(=C\c2ccc(O)c(Br)c2)C(c2ccc(O)cc2)=C1Cl`, the GI50 is inactive: 39.1 µM. For the molecule `CC(=O)OCCOc1cc2c([nH]c3ccccc32)c(C)c2cccc1-2`, the GI50 is inactive: 12.6 µM. Next, `COc1cc(-c2oc3c(OC)c(O)c(OC)c(O)c3c(=O)c2OC)cc(OC)c1OC`: inactive: > 100 µM.
